In the supplement of paper PMC9174493:
The other results are listed elsewhere or left out. Single values of this set are uncertain. Values with irradiation are relative to irradiated vehicle.

Test system: A549-Dual
Assay: ISRE reporter (Lucia luciferase) activity, viability-corrected, relative to vehicle (fold change vs vehicle); higher = more activation of STING-IRF / NF-kB immune response reporter
Conditions: 10 µM; irradiation: 8 Gy/4 fr

Compound	ISRE reporter
CC(C)C(=O)c1c(C(C)C)nn2ccccc12 [Ibudilast]	0.813
CCN(CC)CCNC(=O)c1cc(Cl)c(N)cc1OC.Cl [Metoclopramide HCl]	0.831
CC1(C)SC2C(NC(=O)C(C(=O)[O-])c3ccccc3)C(=O)N2C1C(=O)[O-].[Na+].[Na+] (stereo not given) [Carbenicillin disodium]	1.28
Cl.O=S(=O)(c1cccc2cnccc12)N1CCCNCC1 [Fasudil (HA-1077) HCl]	0.436
CC1(C(=O)O)CCC2(C)CCC3(C)C(=CC(=O)C4C5(C)CCC(O)C(C)(C)C5CCC43C)C2C1 (stereo not given) [Enoxolone]	0.624
O=C([O][Ca][O]C(=O)C(O)C(O)C(O)C(O)C(O)CO)C(O)C(O)C(O)C(O)C(O)CO (stereo not given) [Calcium Gluceptate]	1.08
C=C1CC/C=C(\C)CCC2C1CC2(C)C (stereo not drawn) [β-Caryophyllene]	1.3
CCC(c1ccccc1)c1c(O)c2ccccc2oc1=O (stereo not given) [Phenprocoumon]	0.314
O=C1CCc2ccc(OCCCCN3CCN(c4cccc(Cl)c4Cl)CC3)cc2N1 [Aripiprazole]	0.773
CCC1(C)CC(=O)NC1=O (stereo not given) [Ethosuximide]	0.511
CC(=O)Oc1c(C)c(C)c2c(c1C)CCC(C)(CCCC(C)CCCC(C)CCCC(C)C)O2 (stereo not given) [Vitamin E Acetate]	0.736
CCCCN1CCCCC1C(=O)Nc1c(C)cccc1C.Cl (stereo not given) [Bupivacaine HCl]	0.681
COc1ccnc(CS(=O)c2nc3cc(-n4cccc4)ccc3[n]2[Na])c1C (stereo not given) [Ilaprazole sodium]	1.34
CSc1ccc2c(c1)N(CCC1CCCCN1C)c1ccccc1S2.Cl (stereo not given) [Thioridazine hydrochloride]	0.715
CCCCCC(C)N (stereo not given) [2-Aminoheptane]	1.57
CCCCOC(=O)c1ccc(O)cc1 [Butylparaben]	0.643
CCCCCCCCCCCCCCC(=O)O [Pentadecanoic acid]	1.18
CC(CCC(=O)O)C1CCC2C3CCC4CC(O)CCC4(C)C3CC(O)C12C (stereo not given) [Deoxycholic acid]	1.04

Compound	ISRE reporter
OCCN1CCN(CCCN2c3ccccc3Sc3ccc(Cl)cc32)CC1 [Perphenazine]	0.511
Cl.N=C(N)c1ccccc1 [Benzamidine HCl]	0.682
O.O.O.O.[Li][O]C(=O)CC(O)(CC(=O)[O][Li])C(=O)[O][Li] [Citric acid trilithium salt tetrahydrate]	0.84
C1CNCCN1 [Piperazine]	0.862
CC1(Cn2ccnn2)C(C(=O)O)N2C(=O)CC2S1(=O)=O (stereo not given) [Tazobactam]	1.11
CC1=C(/C=C/C(C)=C/C=C/C(C)=C/C=C/C=C(C)/C=C/C=C(C)/C=C/C2=C(C)CCCC2(C)C)C(C)(C)CCC1 [Beta Carotene]	1.21
CCN(CC)CCOc1ccc2c(c1)C(=O)c1cc(OCCN(CC)CC)ccc1-2.Cl.Cl [Tilorone dihydrochloride]	1.29
CCCCCCCN(CC)CCCC(O)c1ccc(NS(C)(=O)=O)cc1.CCCCCCCN(CC)CCCC(O)c1ccc(NS(C)(=O)=O)cc1.O=C(O)/C=C/C(=O)O (stereo not given) [Ibutilide Fumarate]	1.07
CC(C)(C)NC(=O)NC(C(=O)N1CC2C(C1C(=O)NC(CC1CCC1)C(=O)C(N)=O)C2(C)C)C(C)(C)C (stereo not given) [Boceprevir]	0.71
COc1ccc(NS(=O)(=O)c2ccc(N)cc2)nn1 [Sulfamethoxypyridazine]	0.772
C[C@H](N)C(=O)O [L-Alanine]	1.44
CN(Cc1ccc(C(C)(C)C)cc1)Cc1cccc2ccccc12 [Butenafine]	0.595
COCCCOc1ccnc(CS(=O)c2nc3ccccc3[n]2[Na])c1C (stereo not given) [Rebeprazole sodium]	0.392
CN(C)CCOC(C)(c1ccccc1)c1ccccn1.O=C(O)CCC(=O)O (stereo not given) [Doxylamine Succinate]	0.765
NS(=O)(=O)Cc1noc2ccccc12 [Zonisamide]	0.769
O=C(O)CSc1nnc(Br)n1-c1ccc(C2CC2)c2ccccc12 [Lesinurad]	0.665
Oc1cc(O)c2c(c1)OC(c1ccc(O)c(O)c1)C(OC1(c3ccc(O)c(O)c3)Oc3cc(O)cc(O)c3C(O)C1O)C2 (stereo not given) [Proanthocyanidins]	0.755
